In patent US20220259281A1 (SHATTUCK LABS, published 2022):

T1: recombinant human CSF1 protein (human, UniProt P09603 33-190, limits assumed)
T1 sequence (looked up): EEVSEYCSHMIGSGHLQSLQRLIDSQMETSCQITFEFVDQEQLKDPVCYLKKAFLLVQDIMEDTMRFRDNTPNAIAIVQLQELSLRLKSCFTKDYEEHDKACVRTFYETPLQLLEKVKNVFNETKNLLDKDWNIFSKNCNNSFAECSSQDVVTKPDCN


Assays:
human PD-L1 = molecular target: T2, human PD-L1 (human, UniProt Q9NZQ7); test: flow cytometry binding to CHOK1/hPDL1 cells; supernatant as % of total reaction volume
T2 construct: whole, on cells; also called hPD-L1; PD-L1 on CHO-K1/hPD-L1 cells
Description: (§1) In one experiment, the HT1080/h4-1BB cells were incubated with increasing amounts of the neat culture supernatant of Jurkat parental or the Jurkat/hPD-1-Fc-4-1BBL cells produced as discussed in Example 2. Binding was detected using flow cytometry and the mean fluorescence intensity (MFI) was calculated and plotted as a function of the amount of the neat culture supernatant of Jurkat parental or Jurkat/hPD-1-Fc-4-1BBL cells. […] Further, the CHO-K1/hPD-L1 cells were incubated with increasing amounts of the neat culture supernatant of the Jurkat parental or Jurkat/hPD-1-Fc-4-1BBL cells produced as discussed in Example 2. Binding was detected using flow cytometry and the MFI was calculated and plotted as a function of the amount of the neat culture supernatant of Jurkat parental or Jurkat/hPD-1-Fc-4-1BBL cell.

human 4-1BB = molecular target: T3, human 4-1BB (human, UniProt Q07011 24-255); test: flow cytometry binding to HT1080/h41BB cells; supernatant as % of total reaction volume
T3 construct: whole, on cells; also called h4-1BB; 4-1BB on HT1080/h4-1BB cells
Description: as §1

anti-human PD-1 antibody = test: MSD dual binding assay; Coat: anti-hPD1, Detect: anti-h41BBL; 3-fold dilution series drawn as bars
Description: (§2) Concentrated, de-salted culture supernatant was prepared as follows: 40 million Jurkat parental cells, Jurkat cells expressing human PD-1-Fc-4-1BBL chimeric protein (Jurkat/hPD-1-Fc-4-1BBL), Jurkat cells expressing human PD-1-Fc-OX40L chimeric protein (Jurkat/hPD-1-Fc-OX40L), or Jurkat cells expressing human CSF1R-Fc-CD40L chimeric protein (Jurkat/hCSF1R-Fc-CD40L) were cultured in 60 mL of media for 48 hours. After this, the media were harvested and concentrated 50-75× using AMICON-15 50K columns. Concentrated supernatant was desalted over a ZEBA desalting column or directly dialyzed in PBS and used in experiments. The resulting supernatant was also termed “neat” supernatant.
The PD-1-Fc-4-1BBL chimeric protein harbors the extracellular domain of PD-1 protein domain at or near the N-terminus and the extracellular domain of 4-1BB Ligand (4-1BBL) protein domain at or near the C-terminus. To understand whether the PD-1 and 4-1BBL can simultaneously bind to respective antibodies, an anti-human PD-1 antibody was coated on a plate. Three-fold serial dilutions neat culture supernatants of Jurkat parental cells or Jurkat/hPD-1-Fc-4-1BBL cells were added to the plate. […] The plate was incubated to allow capture of any protein by the plate-bound anti-human PD-1 antibody. […] Binding was detected using the MSD platform.

[1] = molecular target: T1, recombinant human CSF1 protein; test: MSD CSF1 binding; Coat: CSF1-his, Detect: anti-hCD40L-biotin then Streptavidin sulfo-tag; 3-fold dilution series drawn as bars
Description: FIG. 10A and FIG. 10B show the quantitation of the binding of the ECDs of human CSF1R and CD40L present in the hPD-1-Fc-OX40L chimeric protein produced by the Jurkat/hPD-1-Fc-OX40L cells to their respective ligands. […] Human recombinant CSF1-coated MSD plates were incubated with increasing amounts of the culture supernatant of the Jurkat parental or Jurkat/hCSF1R-Fc-CD40L cells produced as discussed in Example 2. Binding was detected using anti-human CD40L-biotin, followed by the MSD streptavidin reagent.
To detect binding of the chimeric protein produced by Jurkat/hCSF1R-Fc-CD40L cells to human CSF1, which is a soluble protein, the MSD platform was used. Briefly, recombinant human CSF1 protein was coated on MSD plates. Increasing amounts of the neat culture supernatant of the Jurkat parental or Jurkat/hCSF1R-Fc-CD40L cells produced as discussed in Example 2 were added. The plates were incubated to allow capture of any CSF-1 binding protein by the plate-bound CSF1. To detect capture of the hCSF1R-Fc-CD40L chimeric protein by the plate-bound CSF1, anti-human CD40L-biotin antibody was added. The MSD streptavidin reagent was added for detection. The MSD signal was plotted as a function of the amount of the neat culture supernatant of Jurkat parental or Jurkat/hCSF1R-Fc-CD40L cells.

human CD40 = molecular target: T4, human CD40 (human, UniProt P25942 21-277); test: flow cytometry binding to CHOK1/hCD40 cells; supernatant as % of total reaction volume
T4 construct: whole, on cells; also called hCD40; CD40 on CHO-K1/hCD40 cells
Description: In yet another experiment, the CHO-K1/hCD40 cells were incubated with increasing amounts of the neat culture supernatant of the Jurkat parental or Jurkat/hCSF1R-Fc-CD40L cells produced as discussed in Example 2. Binding was detected using flow cytometry and the MF was calculated and plotted as a function of the amount of the neat culture supernatant of Jurkat parental or Jurkat/hCSF1R-Fc-CD40L cells.

[2] = molecular target: anti-human CSF1R antibody; test: MSD dual binding assay; Coat: anti-hCSF1R, Detect: anti-hCD40L; 3-fold dilution series drawn as bars
Description: as §2
The CSF1R-Fc-CD40L chimeric protein harbors the extracellular domain of CSF1R protein domain at or near the N-terminus and the extracellular domain of CD40 Ligand (CD40L) protein domain at or near the C-terminus. To understand whether the extracellular domains of CSF1R and CD40L can simultaneously bind to respective antibodies, an anti-human CSF1R antibody was coated on a plate. Three-fold serial dilutions neat culture supernatants of Jurkat parental cells or Jurkat/hCSF1R-Fc-CD40L cells were added to the plate. […] The plate was incubated to allow capture of any protein by the plate-bound anti-human CSF1R antibody. […] Binding was detected using the MSD platform.

human CD40, sequence (P25942 21-277): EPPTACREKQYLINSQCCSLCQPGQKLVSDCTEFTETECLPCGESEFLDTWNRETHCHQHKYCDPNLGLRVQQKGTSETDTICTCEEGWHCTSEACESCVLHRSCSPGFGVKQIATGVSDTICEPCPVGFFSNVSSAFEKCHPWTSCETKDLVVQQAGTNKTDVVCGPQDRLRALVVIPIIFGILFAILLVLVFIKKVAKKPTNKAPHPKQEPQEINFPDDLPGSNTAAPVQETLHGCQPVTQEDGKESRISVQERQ
human PD-L1, sequence (Q9NZQ7 19-290): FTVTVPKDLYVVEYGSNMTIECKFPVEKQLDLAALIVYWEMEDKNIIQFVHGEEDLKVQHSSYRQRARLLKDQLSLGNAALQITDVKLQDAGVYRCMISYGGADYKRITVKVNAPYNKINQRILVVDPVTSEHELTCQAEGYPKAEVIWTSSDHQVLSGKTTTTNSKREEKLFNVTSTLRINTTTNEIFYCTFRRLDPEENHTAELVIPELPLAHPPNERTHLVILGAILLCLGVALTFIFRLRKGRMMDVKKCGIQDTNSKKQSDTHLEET
human 4-1BB, sequence (Q07011 24-255): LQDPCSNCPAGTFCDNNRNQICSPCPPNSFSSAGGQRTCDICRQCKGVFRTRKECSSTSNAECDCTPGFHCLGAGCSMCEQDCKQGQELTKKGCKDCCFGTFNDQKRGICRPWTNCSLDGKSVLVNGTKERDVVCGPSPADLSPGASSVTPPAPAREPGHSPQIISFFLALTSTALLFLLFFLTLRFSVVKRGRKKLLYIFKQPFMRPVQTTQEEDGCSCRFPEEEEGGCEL

binding result (human PD-L1) | binding result (human 4-1BB) | EC50 (read off the curve) (anti-human PD-1 antibody) [µg/mL] | EC50 (read off the curve) [1] [µg/mL] | binding result (human CD40) | EC50 (read off the curve) [2] [µg/mL] | Binder
binds | binds | ~0.1 |  |  |  | human PD-1-Fc-4-1BBL heterologous chimeric protein (Fc fusion, Tested as secreted protein in concentrated Jurkat supernatant and as purified protein; also called hPD-1-Fc-4-1BBL; hPD1-Fc-4-1BBL) LDSPDRPWNPPTFSPALLVVTEGDNATFTCSFSNTSESFVLNWYRMSPSNQTDKLAAFPEDRSQPGQDCRFRVTQLPNGRDFHMSVVRARRNDSGTYLCGAISLAPKAQIKESLRAELRVTERRAEVPTAHPSPSPRPAGQFQSKYGPPCPPCPAPEFLGGPSVFLFPPKPKDQLMISRTPEVTCVVVDVSQEDPEVQFNWYVDGVEVHNAKTKPREEQFNSTYRVVSVLTVLHQDWLSGKEYKCKVSSKGLPSSIEKTISNATGQPREPQVYTLPPSQEEMTKNQVSLTCLVKGFYPSDIAVEWESNGQPENNYKTTPPVLDSDGSFFLYSRLTVDKSRWQEGNVFSCSVLHEALHNHYTQKSLSLSLGKIEGRMDD[sequence of about 200 residues not given]
 |  |  | ~0.5 | binds | ~0.5 | human CSF1R-Fc-CD40L heterologous chimeric protein (Fc fusion, Tested as secreted protein in Jurkat supernatant, as protein secreted in co-culture and as purified protein; also called hCSF1R-Fc-CD40L; chimeric protein in neat culture supernatant of Jurkat/hCSF1R-Fc-CD40L cells) [sequence of about 500 residues not given]SKYGPPCPPCPAPEFLGGPSVFLFPPKPKDQLMISRTPEVTCVVVDVSQEDPEVQFNWYVDGVEVHNAKTKPREEQFNSTYRVVSVLTVLHQDWLSGKEYKCKVSSKGLPSSIEKTISNATGQPREPQVYTLPPSQEEMTKNQVSLTCLVKGFYPSDIAVEWESNGQPENNYKTTPPVLDSDGSFFLYSRLTVDKSRWQEGNVFSCSVLHEALHNHYTQKSLSLSLGKIEGRMDHRRLDKIEDERNLHEDFVFMKTIQRCNTGERSLSLLNCEEIKSQFEGFVKDIMLNKEETKKENSFEMQKGDQNPQIAAHVISEASSKTTSVLQWAEKGYYTMSNNLVTLENGKQLTVKRQGLYYIYAQVTFCSNREASSQAPFIASLCLKSPGRFERILLRAANTHSSAKPCGQQSIHLGGVFELQPGASVFVNVTDPSQVSHGTGFTSFGLLKL
